# Some of the results follow. The energies were worked out here from pooled read counts, against the library average; single values are noisy.
# Biological target: T1, Pho4 (S. cerevisiae) (UniProt P07270)
# T1 sequence: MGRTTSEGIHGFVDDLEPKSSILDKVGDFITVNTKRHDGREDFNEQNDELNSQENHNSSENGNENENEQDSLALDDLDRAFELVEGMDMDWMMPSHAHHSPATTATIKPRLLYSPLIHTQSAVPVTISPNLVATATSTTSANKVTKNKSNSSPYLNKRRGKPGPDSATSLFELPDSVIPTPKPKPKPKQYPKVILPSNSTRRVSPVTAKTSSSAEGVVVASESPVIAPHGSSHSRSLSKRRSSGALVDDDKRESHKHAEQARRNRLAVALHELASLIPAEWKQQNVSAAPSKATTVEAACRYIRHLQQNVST
# Assay: relative binding free energy (BET-seq); higher = weaker binding
# Conditions: reference: library average
row,Sequence,relative binding free energy [kcal/mol]
1,CAAAGCACGTGGGGTA,-0.24
2,AACCGCACGTGAGGGT,0.24
3,GAAAGCACGTGTAAGG,0.09
4,CTTTGCACGTGGGTGA,-0.09
5,TTGTGCACGTGTTTGA,0.02
6,CGGGTCACGTGCGGTG,0.11
7,AGTGTCACGTGGATCG,-0.04
8,CTTGGCACGTGTCTGG,-0.1
9,AATATCACGTGGTGTT,0.15
10,GTGAGCACGTGGGATG,-0.15
11,TGGTTCACGTGGTGCA,0.27
12,TATGTCACGTGGGCTA,-0.12
13,GCTGGCACGTGAATTG,0.24
14,GGTAGCACGTGTATTT,0.14
15,TGCTGCACGTGTAGGT,-0.06
16,CCGGTCACGTGTTGGG,0.02
17,TTTAACACGTGCTGGA,-0.08
18,TTAAGCACGTGAGACG,0.23
19,ATTCGCACGTGGGGTT,-0.15
20,TAGGACACGTGCATGG,-0.02
21,CTGTACACGTGGGGTG,-0.12
22,AGTAGCACGTGAGTTA,0.05
23,TGTATCACGTGTGTGT,0.17

row,Sequence,relative binding free energy [kcal/mol]
1,GCAGGCACGTGCGGGG,-0.27
2,ATGTTCACGTGCAGTG,0.2
3,GGGGTCACGTGGGGTC,0.09
4,TGAGTCACGTGTGTTA,0.15
5,GTAGGCACGTGGAAGA,0.1
6,ATATGCACGTGGCGGG,-0.2
7,AAGGGCACGTGATGGG,0.05
8,AGTATCACGTGAAATT,0.32
9,GTTAACACGTGGTATG,-0.01
10,CTTAGCACGTGTGGCT,-0.04
11,GTTTTCACGTGTATGA,0.4
12,TCGTGCACGTGGGTCG,-0.15
13,GTATACACGTGGACGT,-0.01
14,TAGATCACGTGCTATT,0.19
15,ACTGTCACGTGGGGTA,0.02
16,TGTATCACGTGCCGGG,-0.02
17,TTAATCACGTGTTAGT,0.2
18,TTAGGCACGTGGATCT,-0.06
19,AGCGACACGTGTAAGG,0.25
20,CGTAGCACGTGAGTTT,0.23
21,TTTTTCACGTGTTGTC,0.32
22,GTATTCACGTGATTTG,0.31
23,GATCGCACGTGGGCTG,-0.11

row,Sequence,relative binding free energy [kcal/mol]
1,TCGCGCACGTGGGGAG,-0.2
2,TGGGTCACGTGGTGCG,0.09
3,TGGTGCACGTGGAGCG,-0.03
4,TTTTTCACGTGAAAAG,0.44
5,CATTGCACGTGGATAG,0.1
6,CGTTACACGTGGGTAA,-0.05
7,GTTGTCACGTGCAGAT,0.13
8,CATGGCACGTGGGGAA,-0.2
9,TGTGGCACGTGGGTCG,-0.18
10,GAGTTCACGTGGTTGG,0.37
11,CTAGTCACGTGGTGAT,0.03
12,AATTGCACGTGGTTTC,0.08
13,TGACGCACGTGTGGTT,-0.04
14,GTCTGCACGTGGAAGT,0.13
15,TGTGTCACGTGAGGTT,0.29
16,GGTAACACGTGAGATG,0.38
17,TTTTACACGTGCGAAT,0.26
18,GGAATCACGTGAAGTA,0.43
19,AATTGCACGTGTCATG,0.06
20,TGAAACACGTGGTAGT,-0.03
21,TAATGCACGTGTGGGG,0.04
22,ATGGTCACGTGGTAAA,0.04
23,TTAGGCACGTGAGTGA,0.17

row,Sequence,relative binding free energy [kcal/mol]
1,TTTGTCACGTGATAAA,0.17
2,GGAGACACGTGGTATA,0.02
3,GAGGACACGTGGTGGT,0.22
4,GAGCGCACGTGAGGAG,0.22
5,CGTATCACGTGTGGTG,0.01
6,GGTATCACGTGCGGGA,0.19
7,ATTGGCACGTGCTGTA,-0.22
8,TAAGTCACGTGCTTAT,0.1
9,CGTAGCACGTGTTTTA,-0.01
10,TTGGTCACGTGTACGG,0.22
11,GGTTGCACGTGGAAGT,0.12
12,TATGTCACGTGAGCGT,0.2
13,ATCTTCACGTGAATTT,0.28
14,TTGCGCACGTGGGGAA,-0.18
15,TGGTACACGTGTGCGC,0.1
16,TGGCTCACGTGTTGGA,0.15
17,CTTGACACGTGTAGGG,-0.01
18,ATCTGCACGTGGGGCG,-0.14
19,AGTGCCACGTGGATGT,-0.15
20,TGTTGCACGTGGATAA,0.08
21,GCTGGCACGTGTGGGG,0.01
22,TGTTACACGTGTATTT,0.09
23,AAAGGCACGTGGAGAT,-0.04

row,Sequence,relative binding free energy [kcal/mol]
1,TGCTACACGTGTGGAA,0.35
2,ACGTGCACGTGTTTGA,-0.14
3,TTGAGCACGTGGGACG,-0.15
4,TGTCACACGTGGTGCT,-0.01
5,ATTTGCACGTGATTAG,0.04
6,ATGGGCACGTGAGATA,-0.07
7,TTGGGCACGTGCATTG,-0.12
8,GGGGTCACGTGGCTTT,0.13
9,CAGTTCACGTGGCGGG,0.15
10,ACGGGCACGTGACGGG,-0.18
11,TTGTTCACGTGAAAGT,0.24
12,GGTGGCACGTGTGTTG,-0.02
13,TCTTGCACGTGGGGAA,-0.08
14,ATTGTCACGTGATACT,0.13
15,TGGACCACGTGTATTT,-0.01
16,GGTAGCACGTGTTGTG,0.03
17,TTTAGCACGTGTGATA,0.01
18,CGTGTCACGTGTATGC,-0.02
19,CGGTGCACGTGGTTTA,-0.09
20,GTGCGCACGTGTGGGG,-0.09
21,TGGAACACGTGAAGTA,0.31
22,TTATGCACGTGTAGAG,0
23,AGTAACACGTGACGGG,0.11

# — the BET-seq Pho4 binding data (Le et al. 2018)
